Measured values taken from the supplement of paper PMC3334620.
Over roughly 33,000 sequences, “E-score (-0.5 to 0.5)” has its median near -0.054; the highest 2% begin near 0.35. The list shows a part of the results.

The sequences below were run against T1, Stb5 (UniProt P38699) (assay: PBM E-score (8-mer binding enrichment) (E-score (-0.5 to 0.5)); higher = stronger / more preferred TF binding; most listed sequences are background and not binding sites). Settings: protein concentration: 200 nM; construct: GST-full length.
T1 sequence: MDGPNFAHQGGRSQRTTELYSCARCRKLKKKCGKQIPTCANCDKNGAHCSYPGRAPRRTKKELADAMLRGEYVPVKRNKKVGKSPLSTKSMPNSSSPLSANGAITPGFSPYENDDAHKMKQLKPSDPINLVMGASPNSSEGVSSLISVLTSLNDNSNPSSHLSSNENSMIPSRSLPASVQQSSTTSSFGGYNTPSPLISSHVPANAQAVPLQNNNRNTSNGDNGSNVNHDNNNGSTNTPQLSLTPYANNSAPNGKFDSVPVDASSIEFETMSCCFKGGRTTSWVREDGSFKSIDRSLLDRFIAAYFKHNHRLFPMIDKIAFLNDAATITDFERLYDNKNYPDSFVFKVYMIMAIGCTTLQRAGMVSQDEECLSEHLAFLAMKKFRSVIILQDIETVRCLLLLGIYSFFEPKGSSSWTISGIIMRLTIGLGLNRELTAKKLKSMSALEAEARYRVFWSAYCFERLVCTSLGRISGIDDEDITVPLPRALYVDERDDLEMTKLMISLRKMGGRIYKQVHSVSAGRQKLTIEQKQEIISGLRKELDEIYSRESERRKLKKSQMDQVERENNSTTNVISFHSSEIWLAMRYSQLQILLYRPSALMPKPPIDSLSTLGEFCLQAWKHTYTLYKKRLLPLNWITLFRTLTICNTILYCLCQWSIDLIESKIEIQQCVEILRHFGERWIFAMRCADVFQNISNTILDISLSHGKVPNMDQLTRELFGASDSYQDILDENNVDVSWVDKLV
Summary of the method: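 Detection of bound protein used fluorescent anti-GST, with scans normalised by masliner. The proteins were GST-tagged yeast transcription factors applied at about 100-200 nM to universal all-10-mer Agilent arrays made double-stranded by primer extension. Each ungapped eight-base word, pooled with its reverse complement, was scored with an E-score from the Universal PBM Analysis Suite.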

First: ATACCTTC
Second: GTAAATTA
The “PBM E-score” value of the first is lower: 0.00151 for the first, 0.0961 for the second.

First: CAGGCCGC
Second: ACCTTCAG
The “PBM E-score” value of the first is higher: 0.187 for the first, -0.145 for the second.

Going from CCGGCTCA to ATGCCGAG, the “PBM E-score” value falls from 0.251 to 0.147.

Compared with GAAACAGA, TACCCACA is lower in “PBM E-score” value: -0.146 for the first, -0.228 for the second.

First: TCTCCCCA
Second: CAATAACC
The “PBM E-score” value of the first is lower: -0.0906 for the first, 0.0908 for the second.

First: ATGCCGGA
Second: TAAGGGTA
The “PBM E-score” value of the first is higher: 0.373 for the first, -0.108 for the second.

First: GGCCGGTA
Second: ACCCTTCA
The “PBM E-score” value of the first is higher: 0.259 for the first, -0.239 for the second.

Going from CCTTATAG to CCATATCG, the “PBM E-score” value rises from 0.0545 to 0.299.

Compared with ACTAAGCC, TAGATTGA is lower in “PBM E-score” value: 0.0556 for the first, 0.0223 for the second.

Going from CTACCTAC to CACAGGTA, the “PBM E-score” value falls from -0.133 to -0.341.

Compared with CAAGCGGG, AACTACTT is lower in “PBM E-score” value: 0.273 for the first, -0.00769 for the second.

Compared with GGGGTCAC, AGAGGAGA is lower in “PBM E-score” value: 0.0259 for the first, -0.194 for the second.

Going from CAACGAAC to AGAAATTA, the “PBM E-score” value falls from 0.079 to 0.0588.

Compared with CTGCCGGC, GTGGAACA is lower in “PBM E-score” value: 0.242 for the first, -0.0734 for the second.

Going from CGATGGAC to AATTCAAC, the “PBM E-score” value falls from 0.0592 to 0.0401.

First: GACTACGC
Second: ACTATCCG
The “PBM E-score” value of the first is lower: 0.0477 for the first, 0.0801 for the second.

First: CTCCGGAA
Second: ATATTTGG
The “PBM E-score” value of the first is higher: 0.186 for the first, -0.233 for the second.

Going from CCTACAGG to TCTTTCCA, the “PBM E-score” value rises from -0.0425 to 0.0567.

Going from CCAGCCCG to AAAGGTAA, the “PBM E-score” value falls from 0.0641 to -0.145.

Going from ATAACAAG to GGCAGTGA, the “PBM E-score” value rises from -0.0868 to 0.0229.

First: ACTTTCGA
Second: GCGTACGC
The “PBM E-score” value of the first is lower: -0.0843 for the first, 0.116 for the second.

First: AAAAGTTA
Second: AATCGGCA
The “PBM E-score” value of the first is lower: -0.0905 for the first, 0.29 for the second.

Compared with CAAAAGAG, CTCACTGA is lower in “PBM E-score” value: -0.072 for the first, -0.18 for the second.

Compared with GGGCAGAC, CACCGGCC is higher in “PBM E-score” value: 0.136 for the first, 0.318 for the second.

Compared with GCCGCGCA, ACTCAGGA is lower in “PBM E-score” value: 0.29 for the first, -0.0461 for the second.

First: AAAACGTG
Second: AAGATCGG
The “PBM E-score” value of the first is lower: -0.181 for the first, 0.352 for the second.

Compared with GCGGTAAC, CTCCTTGC is lower in “PBM E-score” value: 0.344 for the first, -0.233 for the second.

Going from GGCCGAAA to AACGAAGA, the “PBM E-score” value falls from 0.0562 to -0.0253.

Compared with AAACGGTC, CCTATGGC is lower in “PBM E-score” value: 0.25 for the first, -0.11 for the second.

First: AGAATGGG
Second: AGAGGTAA
The “PBM E-score” value of the first is lower: -0.212 for the first, 0.0515 for the second.

Compared with GATCCGAA, TATGATCA is lower in “PBM E-score” value: 0.107 for the first, -0.132 for the second.

Compared with AGGGAAAC, ATGGAACA is lower in “PBM E-score” value: -0.25 for the first, -0.314 for the second.

Going from CACTAAAA to CGTTAAAC, the “PBM E-score” value rises from -0.0274 to 0.117.

Compared with CCCTTAGC, AGGATCTA is lower in “PBM E-score” value: -0.0196 for the first, -0.156 for the second.

Compared with GGAAAAGA, ATTACGGA is higher in “PBM E-score” value: -0.0868 for the first, 0.222 for the second.

First: GGCCGCAC
Second: AATCCCGT
The “PBM E-score” value of the first is lower: 0.279 for the first, 0.419 for the second.

Compared with TCGTAACA, GATGTAAA is lower in “PBM E-score” value: 0.0574 for the first, 0.0302 for the second.

First: GGTCTCCA
Second: GAGTCTTA
The “PBM E-score” value of the first is lower: -0.136 for the first, -0.0843 for the second.

Going from CCTTGACG to AATTACGA, the “PBM E-score” value rises from -0.0945 to -0.0854.

Going from AGCCGCGC to AGAGCGTG, the “PBM E-score” value falls from 0.173 to 0.0544.

First: CCATGACC
Second: ATGCGAAA
The “PBM E-score” value of the first is lower: -0.0881 for the first, -0.0503 for the second.

Going from CTTATCTA to ACACAGGT, the “PBM E-score” value falls from -0.062 to -0.204.

Compared with ATAAGTAG, AGTGGGAC is higher in “PBM E-score” value: -0.13 for the first, -0.0588 for the second.

Compared with AGGTGGCC, CACAAGGG is higher in “PBM E-score” value: -0.159 for the first, -0.104 for the second.

First: AATGAAGA
Second: GGCCCGCA
The “PBM E-score” value of the first is lower: -0.032 for the first, 0.182 for the second.

Compared with CCTTCCAG, AGATGCCA is higher in “PBM E-score” value: -0.22 for the first, -0.157 for the second.

Going from GGACACAC to CACTAGGG, the “PBM E-score” value falls from 0.152 to -0.111.

First: AGTACAAC
Second: ACTCAGGG
The “PBM E-score” value of the first is higher: 0.00707 for the first, -0.296 for the second.

Going from CGAGCGCG to CCTAGTTC, the “PBM E-score” value falls from 0.0684 to -0.174.

First: CAATGCGG
Second: AAGTATAG
The “PBM E-score” value of the first is higher: 0.211 for the first, -0.0456 for the second.

Compared with TCTGGGAA, AGCTACCT is lower in “PBM E-score” value: -0.163 for the first, -0.22 for the second.

Compared with TATTTTCA, ACTCGTCG is lower in “PBM E-score” value: 0.061 for the first, -0.0463 for the second.

Compared with AATCGACA, ATTGCGAG is higher in “PBM E-score” value: -0.233 for the first, 0.0852 for the second.

Compared with CACACCAA, GCCACCAA is higher in “PBM E-score” value: -0.119 for the first, -0.0163 for the second.

Compared with ATGTCATA, CTGCTCCA is lower in “PBM E-score” value: -0.0939 for the first, -0.294 for the second.

First: TCGTCGAA
Second: AGCTTTTG
The “PBM E-score” value of the first is lower: -0.364 for the first, -0.139 for the second.

First: GTTCTAGA
Second: CTTCGGCC
The “PBM E-score” value of the first is higher: 0.067 for the first, 0.0364 for the second.

Compared with ATAGACAT, GCATGACA is higher in “PBM E-score” value: -0.197 for the first, -0.191 for the second.

Compared with GGAGACCC, GATTGCCA is higher in “PBM E-score” value: -0.0507 for the first, -0.045 for the second.

First: CTGCGTTA
Second: AACCAAAT
The “PBM E-score” value of the first is higher: -0.0105 for the first, -0.0785 for the second.

Compared with ATCCACAG, ATTATGAG is lower in “PBM E-score” value: -0.0451 for the first, -0.0683 for the second.

Compared with AAAGTTGT, AACGAGGC is lower in “PBM E-score” value: -0.027 for the first, -0.168 for the second.

Going from AGTAGGGG to AGTCTTCA, the “PBM E-score” value falls from -0.0527 to -0.227.

Going from GAGCAACC to GGCTGTGA, the “PBM E-score” value falls from -0.113 to -0.14.

Compared with CGAACGGC, ATTGAATA is lower in “PBM E-score” value: 0.211 for the first, -0.0651 for the second.

Going from ATTAGACG to CCAACGGG, the “PBM E-score” value rises from 0.0365 to 0.266.

Compared with CGGTATCA, AGAACATG is lower in “PBM E-score” value: 0.364 for the first, -0.149 for the second.

Going from GACGTCCC to AGGTCGGA, the “PBM E-score” value rises from -0.0902 to 0.326.

First: CATGTATC
Second: GCCCTTCA
The “PBM E-score” value of the first is higher: -0.0223 for the first, -0.0256 for the second.

Going from TGCTTAAA to TAAACCAA, the “PBM E-score” value rises from -0.155 to -0.106.

Going from ATTTACTC to AGCGTAAT, the “PBM E-score” value falls from 0.0443 to -0.21.

Going from CGGCTGCC to GATTTAGC, the “PBM E-score” value rises from -0.0572 to 0.126.

First: TCCAGTCA
Second: AGGATGTG
The “PBM E-score” value of the first is lower: -0.134 for the first, -0.076 for the second.

Going from ACGGGCCG to AGGGGCGC, the “PBM E-score” value falls from 0.194 to -0.0545.

Compared with AAACTTTC, AAGGAGCC is lower in “PBM E-score” value: -0.0994 for the first, -0.137 for the second.

Going from ACAGGCGT to ACTTATAT, the “PBM E-score” value rises from -0.167 to 0.0338.

First: ATCTTTAA
Second: CTTTGATA
The “PBM E-score” value of the first is higher: 0.118 for the first, -0.114 for the second.

First: AGGAGGAG
Second: CGGTGTTC
The “PBM E-score” value of the first is lower: -0.286 for the first, 0.399 for the second.

Compared with AAAGCCCC, CAAAAGAA is lower in “PBM E-score” value: 0.246 for the first, 0.0049 for the second.

First: CTCTGTGC
Second: CCATGCTC
The “PBM E-score” value of the first is lower: -0.255 for the first, -0.228 for the second.

Compared with CTTGTCTC, CAAGATTA is higher in “PBM E-score” value: -0.22 for the first, -0.103 for the second.

Compared with CAAAGCAG, AAGTCGGC is higher in “PBM E-score” value: -0.0934 for the first, 0.295 for the second.

First: ACCAGTCG
Second: AATTTACG
The “PBM E-score” value of the first is lower: 0.1 for the first, 0.222 for the second.

Compared with ATCGTGTC, CAGAGAAA is lower in “PBM E-score” value: 0.129 for the first, -0.239 for the second.

First: AGGCGAAT
Second: GGTACGAA
The “PBM E-score” value of the first is lower: -0.141 for the first, 0.0872 for the second.

Compared with GCTCACAC, ATGCTGGG is higher in “PBM E-score” value: -0.119 for the first, -0.0836 for the second.
